One data set deals with immune system. The experiment in a line: Immune stimulation (FIG. 1).
A further data set relates to prolyl oligoproteases. Nature of the data set: Inhibition of prolyl oligoproteases (FIG. 1). Type of data set: biochemical.
Data set [1] can be described thus: Mouse toxicity, plasma vs. dose, 5-day oral dosing. Type of data set: in vivo, C57BL/6 mice. As to conditions: for body weight over 5 day treatment: mouse, in vivo; for survival: oral gavage daily for 5 days, up to 40 mg/kg ARI-4175, up to 10 mg/kg PT-100. The source says: Mouse Toxicity Plasma Vs. Dose Figures. […]. Plasma concentrations are approximately proportional to dose over the range tested.

Another data set relates to MB49. The experiment in a line: MB49 subcutaneous tumor model. It counts as in vivo. The following applies: for anti-tumor activity: 20 μg dose. From the text:
Mice were orally gavaged on days 3-7 and 10-14. Tumor volume was monitored by caliper measurements. […].

Another data set can be described thus: in vivo. The following applies: Sprague Dawley, rat; for MTD: po.
The subject of a further data set is tumors. The experiment in a line: PT-100 tumor regression, early stage and established tumors (FIG. 2, 3).
A short description of data set [2]: Maximum tolerated dose study in Sprague Dawley rats.
In another data set the test system is DLD-1. As to conditions: 10 nM-200 μM, three days, alone or in combination with cetuximab.
The next data set concerns HCT-116. As to conditions: 10 nM-200 μM, three days, alone or in combination with cetuximab.
The next data set concerns HCT-116 xenograft tumors. Nature of the data set: Colon cancer xenograft in nude mice.
A further data set deals with HCT116 tumor cells. The experiment in a line: Cytotoxicity of splenocytes from treated mice. It counts as cell-based, C57BI/6 non-tumor-bearing mice. As to conditions: mice treated with ARI-4175 and/or cetuximab.
The next data set concerns DLD-1 xenograft tumors. Nature of the data set: Colon cancer xenograft in nude mice.
The mark [3] stands for this setting: combination with cetuximab, not statistically significant.
[4] abbreviates: single agent, ARI-4175 100 μg oral q.d or b.i.d, cetuximab 200 μg per week i.p.

Take `C[C@H](N)C(=O)N1CCC[C@H]1B(O)O` [Ala-boroPro]: the “stimulation of the immune system” value in the data set with immune system is listed as “does not stimulate”. Also, in the data set with prolyl oligoproteases, the “inhibition of prolyl oligoproteases” value is on record as “inhibit”.

As for `CC(C)[C@H](N)C(=O)N1CCC[C@H]1B(O)O` [PT-100, Val-boroPro, reference compound], the “stimulation of the immune system” value with immune system was “potent immune stimulator”. In addition, in [1], the “body weight over 5 day treatment” value is reported as “significant weight loss”. Also, in [1], the survival turned out to be 100%. Besides, the “inhibition of prolyl oligoproteases” value in the data set on prolyl oligoproteases is given as “inhibit”. In addition, the anti-tumor activity result with MB49 (oral gavage days 3-7 and 10-14) is given as “induce anti-tumor activity”. The toxicity entry with MB49 (200 μg dose) was “toxic”. Further, the MTD came out at 0.05 mg/kg in “in vivo” and 0.025 mg/kg in data set [2] (SQ, rats, maximum dose with 100% survival). Besides, the “regression of established tumors” value with tumors (PT-100+Dendritic Cell (DC) vaccine) is “produces regression”; in the data set on tumors (PT-100 alone) it was “not of established tumors”. Besides, the “regression of early stage tumors” value in the data set on tumors (PT-100 alone) is reported as “complete regression”. In addition, the deaths entry in data set [2] (0.01 mg/kg SQ, 48 hours post-dose) is reported as “did not result in any deaths”; in [2] (0.025 mg/kg SQ) it was “no deaths”; in data set [2] (0.05 mg/kg SQ, within first 24 hours, six rats), “at least one animal death”. In data set [2] (0.05 mg/kg PO), the adverse effects entry is on record as “no adverse effects”.

As to `CC(C)(C)[C@H](N)C(=O)N1CCC[C@H]1B(O)O` [ARI-4175, t-butylGly-boroPro], in [1], the “body weight over 5 day treatment” value is “significant weight loss”. Besides, in [1], the survival was found to be 100%. For the same compound, in the data set with MB49 (oral gavage days 3-7 and 10-14), the anti-tumor activity entry is “induce anti-tumor activity”. Moreover, the full regression with MB49 (200 μg dose, oral gavage days 3-7 and 10-14) was 5 of 5. Besides, in the data set “in vivo”, the MTD at 48 h turned out to be 0.01 mg/kg. This compound also displayed an MTD in “in vivo” of 0.1 mg/kg. For the same compound, the “cytotoxicity in cell culture” value in the data set with DLD-1 and in the data set with HCT-116 was “did not show significant cytotoxicity” throughout. Further, the tumor size entry with HCT-116 xenograft tumors (setting [3]) and with DLD-1 xenograft tumors (setting [3]) was “further decrease in tumor size” throughout. The tumor growth result in the data set on HCT-116 xenograft tumors (setting [4]) and in the data set on DLD-1 xenograft tumors (setting [4]) was “significantly blocked” each time. For the same compound, in the data set on HCT116 tumor cells, the “cytotoxicity of splenocytes against HCT116 tumor cells” value is “enhanced”. For the same compound, the deaths entry in data set [2] (0.25 mg/kg PO) was “one death”.

The values are drawn from patent US9839646B2, “Small molecule enhancer for dendritic cell cancer vaccines” (priority 2011, dated 2017).
